Laboratory results taken from PubChem BioAssay AID602233 (National Center for Advancing Translational Sciences (NCATS), 2012).
About 170 (0.045%) of roughly 380,000 compounds were called active. Inconclusive means that the source gave no clear call. Such entries were picked first, then a sample of the others. Calls follow the shape of the dose curve; as a rule, active = well fitted inhibition curve with a large enough effect; inconclusive = small, poorly fitted or top-dose-only effect; inactive = no such curve, though single readings can be large or run the other way. No potency is given beside an inconclusive call; the fits are too rough.

Target: Phosphoglycerate kinase, glycosomal (Trypanosoma brucei brucei) (UniProt P07378)
Experiment: qHTS Assay to Find Inhibitors of Phosphoglycerate Kinase; also: nearly all actives have a fitted effect of over 60% in size
Settings: PGK/GAPDH coupled, Kinase-Glo luminescence, 60 min; series mostly up to 57.5 µM; activity change, negative = inhibition: at the top concentration
In short: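 Luminescent ATP detection (Kinase-Glo Plus) follows a 60-minute room-temperature incubation, with wells lacking PGK as controls. Buffer: 100 mM TEA (pH 7.6), 5 mM MgCl2, 0.01% Tween-20. Coupling enzyme GAPDH (100 nM final) supplies unstable 1,3-BPG in-well.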
% is scaled to controls: 0 for no effect and ±100 for the full control effect; potency is read from the fitted curve at half-maximal effect; tags tell the direction and shape of the fitted curve.

Compound	Potency	activity change, negative = inhibition	outcome
O=C(N/N=C\c1cccnc1)c1cc(-c2ccc(Cl)s2)[nH]n1	inconclusive [inhibitor, single point]		
O=C1c2ccccc2-c2nnc(-c3ccccc3)cc21	inconclusive [inhibitor, partial curve, poor fit]		
Cc1cc(O)c(C=O)c2c1C(=O)Oc1c(CO)c(O)c3c(c1O2)C(O)OC3=O (stereo unspecified)	inconclusive [inhibitor, partial curve, poor fit]		
O=C(O)CCN1C(=O)/C(=C/c2cn(-c3ccccc3)nc2-c2cccs2)SC1=S	inconclusive [inhibitor, single point]		
O=C(O)c1ccc(N2C(=O)CSC2=S)cc1		inactive: -13.1%	
O=C(N/N=C/c1ccc([N+](=O)[O-])o1)c1cc2c(ccc3ccccc32)o1	inconclusive [inhibitor, single point]		
COc1cc(/C=C2\SC(=O)N(CC(=O)Nc3cccc(C)c3)C2=O)cc([N+](=O)[O-])c1O	inconclusive [inhibitor, partial curve, poor fit]		
O=C(Cc1cccc2ccccc12)NCC(=O)N1CCN(Cc2cccc(C(F)(F)F)c2)CC1			inactive
O=C(O)C1CC=CCC1C(=O)N1CCc2ccccc21 (stereo unspecified)	inconclusive [inhibitor, single point]		
O=C(c1ccccc1)N1CCN(CCc2ccccc2)CC1		inactive: -3.99%	
Cc1ccc2occ(-c3cc(-c4ccccc4)nc4c3COc3ccccc3-4)c(=O)c2c1		inactive: 3.03%	
Cc1ccc(NS(=O)(=O)c2ccc(N/N=C/c3ccccc3OCC(=O)O)c([N+](=O)[O-])c2)c(C)c1	inconclusive [inhibitor, single point]		
O=C(O)c1ccc(N=Nc2c(O)[nH]c3cc(Cl)ccc23)cc1		inactive: 0.183%	
CCN1CCN(CCCN(Cc2ccco2)C(=S)Nc2ccc(C)c(Cl)c2)CC1	inconclusive [inhibitor, partial curve, poor fit]		
O=C(N/N=C/c1ccc(-c2ccc(S(=O)(=O)Nc3ncccn3)cc2)o1)c1cc2ccccc2cc1O	inconclusive [inhibitor, partial curve, poor fit]		
CCOC(=O)c1cccc(-c2ccc(C=O)o2)c1		inactive: 0.652%	
COc1cccc2cc(C(C)N(CCCN3CCOCC3)C(=S)Nc3ccc(C)cc3)oc12 (stereo unspecified)	inconclusive [inhibitor, partial curve]		
O=C(N/N=C/c1cccc(F)c1)c1cc(-c2ccco2)nc2ccccc12	inconclusive [inhibitor, partial curve]		
O=C(/C=C/c1ccc(-c2ccccc2)cc1)NCc1cccnc1		inactive: 5.86%	
Cc1cc(C)c2c(c1)NC(C(=O)O)C1CC=CC21 (stereo unspecified)	inconclusive [inhibitor, partial curve, poor fit]		
COc1cccc(NC(=S)N2CCCN(Cc3ccc(F)cc3)C2)c1		inactive: -5.56%	
N[C@@H](Cc1cc(I)c(Oc2ccc(O)c(I)c2)c(I)c1)C(=O)O	inconclusive [inhibitor, single point]		

Compound	Potency	activity change, negative = inhibition	outcome
O=C(O)C1CSC(c2ccco2)N1 (stereo unspecified)	inconclusive [inhibitor, partial curve, poor fit]		
O=C(O)COc1ccccc1/C=N/Nc1ccc(S(=O)(=O)Nc2ccc(Cl)cc2)cc1[N+](=O)[O-]	inconclusive [inhibitor, single point]		
O=C(O)/C=C/c1cn(-c2ccccc2)nc1-c1ccc(-c2ccc([N+](=O)[O-])cc2)o1	inconclusive [inhibitor, single point]		
CCOC(=O)c1ccccc1NC(=S)N1CCN(C(=O)c2ccco2)CC1	inconclusive [inhibitor, partial curve, poor fit]		
O=C(NN1C(=O)/C(=C/C=C/c2ccco2)SC1=S)c1ccccc1O	inconclusive [inhibitor, partial curve]		
O=C(N/N=C/c1ccc(F)cc1)c1cc(-c2ccco2)nc2ccccc12	inconclusive [inhibitor, partial curve]		
C=CCn1c(SCC(=O)c2ccc(O)c(O)c2)nnc1-c1cccnc1	inconclusive [inhibitor, partial curve]		
CCCCNC(=O)N(O)C1N(/N=C/c2ccccc2F)C(=S)SC1(C)C (stereo unspecified)	inconclusive [inhibitor, partial curve, poor fit]		
CCCCC(CC)CNC(=O)CN1C(=O)CSc2ccc(S(=O)(=O)N3CCOCC3)cc21 (stereo unspecified)		inactive: -9.23%	
COC(=O)c1c(NC(=O)COC(=O)c2ccc(NC(=O)CC#N)cc2)sc2c1CCCCC2	inconclusive [inhibitor, single point]		
CCN1CCN(C(=O)c2cc3c(=O)oc4ccc(C)cc4c3s2)CC1	inconclusive [inhibitor, single point]		
Cc1ccc(N(CC(=O)NC2CCCC2)C(=O)CCC(=O)Nc2nccs2)c(C)c1	inconclusive [inhibitor, partial curve]		
CS(=O)(=O)N1CC(C(=O)O)Oc2ccc(CC(=O)O)cc21 (stereo unspecified)	inconclusive [inhibitor, single point]		
Cc1ccc(S(=O)(=O)N(C)C)cc1NC(=O)COC(=O)Cc1n[nH]c(=O)c2ccccc12		inactive: -11.4%	
Cc1ccc2c(c1)-c1c(cnn1CC(=O)O)CO2		inactive: 5.11%	
CC1CCC(NCC(=O)Nc2cccc(S(N)(=O)=O)c2)CC1 (stereo unspecified)		inactive: 4.78%	
CCc1ccc(N=C2NC(=O)/C(=C/c3cc(Br)c(OCC(=O)O)c(OC)c3)S2)cc1		inactive: -28.2%	
O=C1/C(=C/C=C/c2ccco2)SC(=S)N1NS(=O)(=O)c1ccccc1	inconclusive [inhibitor, full curve, poor fit]		
COc1ccc(S(=O)(=O)N2CCN(c3cc(-c4ccccc4)nc4ncnn34)CC2)cc1		inactive: 0.323%	
O=C(O)Cc1ccc(N=Nc2c(O)c(C(=O)O)cc3ccccc23)cc1	inconclusive [inhibitor, single point]		
CC(C)CC1NC(=O)N(CC(=O)Nc2ccc3c(c2)OCCO3)C1=O (stereo unspecified)		inactive: -2.03%	
COc1ccc(C2=NS(=O)(=O)N(C)C(C(=O)Nc3ccc(OC)c(OC)c3)=C2)cc1	inconclusive [inhibitor, single point]		

Compound	Potency	activity change, negative = inhibition	outcome
Cc1ccc(S(=O)(=O)N(CC(=O)O)Cc2ccco2)cc1	inconclusive [inhibitor, partial curve]		
Cc1cc2c(NC(=O)Nc3ccc(C(C)(C)C)cc3)cccc2nn1		inactive: -2.18%	
NC(=S)c1ccc[n+]([O-])c1		inactive: -6.32%	
Cc1ccc(NC(=O)c2sccc2C)nc1	inconclusive [inhibitor, partial curve, poor fit]		
Cc1cc(C(=O)NCc2ccc(C(=O)O)o2)c(C)o1	inconclusive [inhibitor, partial curve]		
N/C(=N\OC(=O)c1ccc(Cl)cc1)c1[nH]ncc1Br	inconclusive [inhibitor, partial curve, poor fit]		
CC1=C/C(=C(\c2cc(C)c(O)c(Br)c2)c2ccccc2S(=O)(=O)O)C=C(Br)C1=O	inconclusive [inhibitor, partial curve, poor fit]		
O=Nc1nc2ncccn2c1-c1ccccc1	inconclusive [inhibitor, partial curve, poor fit]		
COc1ccc(NC(=O)Nc2ccccc2F)cc1	inconclusive [inhibitor, partial curve]		
COc1cccc(OC)c1OCC(C)CNCC1CCCO1 (stereo unspecified)	inconclusive [inhibitor, partial curve, poor fit]		
CC1=C/C(=C(/c2cc(C)c(O)c(Br)c2)c2ccccc2S(=O)(=O)O)C=C(Br)C1=O	inconclusive [inhibitor, partial curve, poor fit]		
COc1ccccc1NC(=O)Nc1cc(C(C)C)ccc1C	inconclusive [inhibitor, partial curve, poor fit]		
COc1ccc(OC)c([N+](=O)[O-])c1C(N)=O	inconclusive [inhibitor, partial curve, poor fit]		
COc1ccc(/C=C/C(=O)OCc2cccc([N+](=O)[O-])c2)cc1	inconclusive [inhibitor, single point]		
Cc1ccnc(N2C(=O)c3ccccc3C2O)c1 (stereo unspecified)	inconclusive [inhibitor, partial curve]		
Clc1nccnc1N/N=C/c1ccc(Br)cc1	inconclusive [inhibitor, single point]		
C=CCn1c(SCC(=O)N2CCOCC2)nc2scc(-c3ccco3)c2c1=O	inconclusive [inhibitor, single point]		
COC(=O)c1cc(=O)c2c(C)nc(C(Cl)(Cl)Cl)nc2[nH]1	inconclusive [inhibitor, single point]		
CC(C)Oc1ccc(C(=O)Nc2nc3ccccc3[nH]2)cc1	inconclusive [inhibitor, single point]		
O=C(NC(=S)Nc1ccccc1Cl)c1ccco1	inconclusive [inhibitor, single point]		
c1coc(-c2nn3c(-c4ccco4)nnc3s2)c1		inactive: -16.2%	
CCc1ccc(CNC(=O)Cc2ccc(NC(=O)C3=C(C)OCCS3)cc2)cc1	inconclusive [inhibitor, partial curve, poor fit]		
